One assay has as its target T1, FS2-PWWP2B (UniProt Q6NUJ5).
T1 sequence: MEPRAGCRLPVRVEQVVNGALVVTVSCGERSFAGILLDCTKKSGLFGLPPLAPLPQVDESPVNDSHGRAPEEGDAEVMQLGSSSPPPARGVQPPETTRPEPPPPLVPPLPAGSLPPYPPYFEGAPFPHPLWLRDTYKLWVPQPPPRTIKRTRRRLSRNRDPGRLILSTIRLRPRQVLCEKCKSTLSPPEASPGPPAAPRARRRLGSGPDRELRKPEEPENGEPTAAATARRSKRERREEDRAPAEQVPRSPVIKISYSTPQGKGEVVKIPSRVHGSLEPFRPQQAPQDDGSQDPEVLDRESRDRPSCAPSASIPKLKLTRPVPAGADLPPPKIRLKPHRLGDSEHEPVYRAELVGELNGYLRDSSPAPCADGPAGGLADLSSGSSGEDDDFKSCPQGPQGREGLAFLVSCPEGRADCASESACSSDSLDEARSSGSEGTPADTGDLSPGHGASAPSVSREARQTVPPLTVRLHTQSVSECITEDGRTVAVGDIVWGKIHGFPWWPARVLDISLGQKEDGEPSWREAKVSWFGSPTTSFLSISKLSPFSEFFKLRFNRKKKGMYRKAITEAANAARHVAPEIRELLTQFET
In words: co-IP; anti-Flag M2 affinity gel, 0.5 mg benzonase-treated mESC nuclear extract, 3 h at 4 °C; 8-10 washes in 25 mM Tris pH 7.5, 300 mM NaCl, 0.2% NP-40; western blot. A general note: Immunoblotting shows a protein as a band on a membrane.

Sequences of proteins named here, by UniProt entry; tags and fusion partners are left off. Residues count along the entry.
His10-Flag3-TEV-MTA1 162-546 (Q13330, residues 162-546): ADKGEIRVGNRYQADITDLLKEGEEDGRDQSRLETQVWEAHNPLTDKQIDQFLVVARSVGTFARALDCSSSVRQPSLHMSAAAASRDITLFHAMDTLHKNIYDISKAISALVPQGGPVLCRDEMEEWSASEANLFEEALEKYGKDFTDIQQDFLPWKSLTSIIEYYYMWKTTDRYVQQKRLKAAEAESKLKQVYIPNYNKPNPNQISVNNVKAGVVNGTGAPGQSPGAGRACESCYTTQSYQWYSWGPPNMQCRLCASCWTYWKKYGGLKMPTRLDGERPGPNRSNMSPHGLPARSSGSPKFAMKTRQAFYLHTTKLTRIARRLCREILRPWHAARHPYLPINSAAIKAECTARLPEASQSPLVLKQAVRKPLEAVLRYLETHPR
His10-Flag3-TEV-MTA1 162-354 (Q13330, residues 162-354): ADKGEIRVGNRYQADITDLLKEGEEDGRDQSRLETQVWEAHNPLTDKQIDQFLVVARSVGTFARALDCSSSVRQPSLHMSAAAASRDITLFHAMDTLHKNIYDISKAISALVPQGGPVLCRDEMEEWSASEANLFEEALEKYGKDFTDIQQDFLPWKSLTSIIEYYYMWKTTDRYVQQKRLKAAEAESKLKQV
UniProt Q6PDQ2: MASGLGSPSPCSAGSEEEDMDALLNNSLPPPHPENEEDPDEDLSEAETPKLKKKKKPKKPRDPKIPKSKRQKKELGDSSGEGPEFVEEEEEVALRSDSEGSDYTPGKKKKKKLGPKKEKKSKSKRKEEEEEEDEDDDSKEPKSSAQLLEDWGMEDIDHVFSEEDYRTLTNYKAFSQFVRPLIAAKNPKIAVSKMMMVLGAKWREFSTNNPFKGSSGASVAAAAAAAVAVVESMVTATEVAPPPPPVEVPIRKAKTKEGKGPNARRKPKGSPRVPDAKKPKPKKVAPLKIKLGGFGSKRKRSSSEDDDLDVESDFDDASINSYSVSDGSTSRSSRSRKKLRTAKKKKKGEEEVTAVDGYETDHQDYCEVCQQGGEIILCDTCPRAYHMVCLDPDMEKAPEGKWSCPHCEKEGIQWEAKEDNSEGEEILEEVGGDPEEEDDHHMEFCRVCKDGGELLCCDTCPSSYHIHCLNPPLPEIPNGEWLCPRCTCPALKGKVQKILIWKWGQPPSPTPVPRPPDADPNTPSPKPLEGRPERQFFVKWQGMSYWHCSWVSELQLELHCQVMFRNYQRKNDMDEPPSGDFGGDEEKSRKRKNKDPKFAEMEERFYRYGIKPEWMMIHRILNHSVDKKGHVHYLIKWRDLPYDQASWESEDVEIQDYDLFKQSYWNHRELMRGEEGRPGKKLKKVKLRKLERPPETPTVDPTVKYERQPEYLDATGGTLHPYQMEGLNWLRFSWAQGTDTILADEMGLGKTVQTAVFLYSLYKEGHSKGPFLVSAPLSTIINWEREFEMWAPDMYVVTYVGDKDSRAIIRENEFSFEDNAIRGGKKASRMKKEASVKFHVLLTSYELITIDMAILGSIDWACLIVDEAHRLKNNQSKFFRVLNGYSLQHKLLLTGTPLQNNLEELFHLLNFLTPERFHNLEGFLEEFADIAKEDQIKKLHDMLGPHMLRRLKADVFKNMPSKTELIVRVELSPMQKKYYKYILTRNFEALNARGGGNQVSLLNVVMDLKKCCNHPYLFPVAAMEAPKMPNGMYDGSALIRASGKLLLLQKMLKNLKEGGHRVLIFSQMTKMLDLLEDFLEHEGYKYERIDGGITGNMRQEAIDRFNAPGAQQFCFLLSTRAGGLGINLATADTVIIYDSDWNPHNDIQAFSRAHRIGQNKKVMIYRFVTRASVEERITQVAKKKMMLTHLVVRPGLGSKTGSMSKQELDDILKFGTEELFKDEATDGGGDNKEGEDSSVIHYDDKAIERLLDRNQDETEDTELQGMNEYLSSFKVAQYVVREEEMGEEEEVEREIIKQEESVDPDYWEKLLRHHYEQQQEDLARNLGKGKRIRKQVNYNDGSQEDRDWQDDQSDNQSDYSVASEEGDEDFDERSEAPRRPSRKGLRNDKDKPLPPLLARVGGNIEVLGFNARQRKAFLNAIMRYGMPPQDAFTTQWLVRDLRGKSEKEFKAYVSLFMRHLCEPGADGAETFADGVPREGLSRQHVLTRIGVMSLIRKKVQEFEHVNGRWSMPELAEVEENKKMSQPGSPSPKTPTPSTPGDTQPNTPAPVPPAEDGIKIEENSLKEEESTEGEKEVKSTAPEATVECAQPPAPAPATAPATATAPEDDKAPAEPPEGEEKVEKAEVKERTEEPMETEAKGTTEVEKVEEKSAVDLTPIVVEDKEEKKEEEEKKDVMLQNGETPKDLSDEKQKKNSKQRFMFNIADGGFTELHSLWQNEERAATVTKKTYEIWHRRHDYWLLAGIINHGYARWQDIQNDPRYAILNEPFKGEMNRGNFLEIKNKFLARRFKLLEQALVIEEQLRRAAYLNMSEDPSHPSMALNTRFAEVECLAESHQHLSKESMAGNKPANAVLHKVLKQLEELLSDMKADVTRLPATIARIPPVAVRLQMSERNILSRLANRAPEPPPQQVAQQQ
UniProt O09106: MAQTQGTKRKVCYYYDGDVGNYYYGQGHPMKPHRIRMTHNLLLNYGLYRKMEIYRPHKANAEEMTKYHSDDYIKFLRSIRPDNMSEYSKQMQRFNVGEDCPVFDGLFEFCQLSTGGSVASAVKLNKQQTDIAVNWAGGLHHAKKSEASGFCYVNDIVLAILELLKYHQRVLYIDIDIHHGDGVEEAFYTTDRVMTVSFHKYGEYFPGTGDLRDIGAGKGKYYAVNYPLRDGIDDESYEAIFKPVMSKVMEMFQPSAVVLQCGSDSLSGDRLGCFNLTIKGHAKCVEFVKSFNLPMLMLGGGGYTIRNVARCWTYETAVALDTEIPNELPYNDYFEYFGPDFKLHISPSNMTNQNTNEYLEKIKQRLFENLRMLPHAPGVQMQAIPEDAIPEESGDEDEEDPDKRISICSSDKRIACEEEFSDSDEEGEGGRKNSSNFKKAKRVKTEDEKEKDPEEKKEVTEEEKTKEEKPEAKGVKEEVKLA
UniProt Q13547: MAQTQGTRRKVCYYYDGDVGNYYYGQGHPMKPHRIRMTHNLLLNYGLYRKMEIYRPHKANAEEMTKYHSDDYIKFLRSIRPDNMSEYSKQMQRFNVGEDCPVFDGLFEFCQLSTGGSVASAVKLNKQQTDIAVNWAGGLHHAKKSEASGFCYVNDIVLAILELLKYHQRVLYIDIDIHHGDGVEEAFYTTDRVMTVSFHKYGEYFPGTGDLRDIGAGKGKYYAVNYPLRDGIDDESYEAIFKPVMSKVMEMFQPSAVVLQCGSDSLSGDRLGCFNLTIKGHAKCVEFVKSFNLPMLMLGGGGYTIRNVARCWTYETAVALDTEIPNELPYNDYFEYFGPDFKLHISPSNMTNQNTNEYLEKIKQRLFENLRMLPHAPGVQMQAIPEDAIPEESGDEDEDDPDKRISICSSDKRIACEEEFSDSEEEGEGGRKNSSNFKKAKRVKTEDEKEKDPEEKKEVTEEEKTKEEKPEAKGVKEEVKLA
UniProt P70288: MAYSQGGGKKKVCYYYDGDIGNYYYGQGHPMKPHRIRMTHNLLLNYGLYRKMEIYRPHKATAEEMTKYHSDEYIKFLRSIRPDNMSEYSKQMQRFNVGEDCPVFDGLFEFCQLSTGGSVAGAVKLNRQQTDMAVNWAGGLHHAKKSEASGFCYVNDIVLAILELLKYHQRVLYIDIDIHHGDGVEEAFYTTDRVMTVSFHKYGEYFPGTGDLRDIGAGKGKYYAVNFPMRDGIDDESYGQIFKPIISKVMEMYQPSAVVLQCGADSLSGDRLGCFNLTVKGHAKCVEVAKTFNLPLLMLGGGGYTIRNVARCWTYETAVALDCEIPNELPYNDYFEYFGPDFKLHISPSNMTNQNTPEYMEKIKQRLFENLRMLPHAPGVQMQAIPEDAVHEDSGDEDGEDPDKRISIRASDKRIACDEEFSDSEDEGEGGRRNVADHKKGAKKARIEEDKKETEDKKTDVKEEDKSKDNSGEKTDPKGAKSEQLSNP
UniProt Q8K4B0: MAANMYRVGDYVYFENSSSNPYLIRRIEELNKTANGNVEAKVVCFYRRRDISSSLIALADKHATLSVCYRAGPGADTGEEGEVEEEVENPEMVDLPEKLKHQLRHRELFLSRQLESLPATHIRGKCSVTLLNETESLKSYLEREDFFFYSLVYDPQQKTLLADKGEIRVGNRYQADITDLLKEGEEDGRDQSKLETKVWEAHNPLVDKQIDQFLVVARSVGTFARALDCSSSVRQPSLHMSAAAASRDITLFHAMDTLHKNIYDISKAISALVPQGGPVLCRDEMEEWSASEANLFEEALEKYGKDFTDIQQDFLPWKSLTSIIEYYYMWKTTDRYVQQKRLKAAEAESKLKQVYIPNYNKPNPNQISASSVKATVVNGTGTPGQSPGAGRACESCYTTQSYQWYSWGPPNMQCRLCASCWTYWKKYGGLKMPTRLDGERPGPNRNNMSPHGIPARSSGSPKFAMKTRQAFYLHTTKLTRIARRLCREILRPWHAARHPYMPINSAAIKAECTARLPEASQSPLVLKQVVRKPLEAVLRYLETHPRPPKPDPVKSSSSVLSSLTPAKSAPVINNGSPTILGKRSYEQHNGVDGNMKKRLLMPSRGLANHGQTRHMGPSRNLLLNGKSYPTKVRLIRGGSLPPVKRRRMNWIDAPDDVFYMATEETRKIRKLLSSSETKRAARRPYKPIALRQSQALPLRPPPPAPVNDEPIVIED

The target of assay [1] is T2, Flag-2xStrepII (FS2) tagged full-length PWWP2A (UniProt Q96N64).
T2 sequence: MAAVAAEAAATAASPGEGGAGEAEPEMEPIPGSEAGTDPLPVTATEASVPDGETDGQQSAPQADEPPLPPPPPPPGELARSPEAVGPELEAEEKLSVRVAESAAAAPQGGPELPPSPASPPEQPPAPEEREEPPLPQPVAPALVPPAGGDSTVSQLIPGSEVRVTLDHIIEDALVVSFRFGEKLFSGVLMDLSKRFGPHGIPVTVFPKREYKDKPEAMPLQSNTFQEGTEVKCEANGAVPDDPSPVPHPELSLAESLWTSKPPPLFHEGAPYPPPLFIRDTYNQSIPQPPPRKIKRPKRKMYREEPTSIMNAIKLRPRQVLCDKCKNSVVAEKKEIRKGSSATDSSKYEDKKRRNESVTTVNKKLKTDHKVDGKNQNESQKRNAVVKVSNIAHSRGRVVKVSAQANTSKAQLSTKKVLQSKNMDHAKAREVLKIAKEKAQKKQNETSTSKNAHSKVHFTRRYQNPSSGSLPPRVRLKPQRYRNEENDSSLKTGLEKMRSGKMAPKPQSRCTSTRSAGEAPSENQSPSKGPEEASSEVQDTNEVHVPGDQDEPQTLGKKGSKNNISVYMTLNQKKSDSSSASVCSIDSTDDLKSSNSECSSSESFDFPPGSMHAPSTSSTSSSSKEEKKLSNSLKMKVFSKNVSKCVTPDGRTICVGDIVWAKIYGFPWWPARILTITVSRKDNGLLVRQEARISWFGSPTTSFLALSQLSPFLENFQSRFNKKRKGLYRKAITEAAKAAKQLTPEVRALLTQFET
The description is as above.

The target of the next assay is T3, FS2-PWWP2A 383–755 (UniProt Q96N64).
T3 sequence: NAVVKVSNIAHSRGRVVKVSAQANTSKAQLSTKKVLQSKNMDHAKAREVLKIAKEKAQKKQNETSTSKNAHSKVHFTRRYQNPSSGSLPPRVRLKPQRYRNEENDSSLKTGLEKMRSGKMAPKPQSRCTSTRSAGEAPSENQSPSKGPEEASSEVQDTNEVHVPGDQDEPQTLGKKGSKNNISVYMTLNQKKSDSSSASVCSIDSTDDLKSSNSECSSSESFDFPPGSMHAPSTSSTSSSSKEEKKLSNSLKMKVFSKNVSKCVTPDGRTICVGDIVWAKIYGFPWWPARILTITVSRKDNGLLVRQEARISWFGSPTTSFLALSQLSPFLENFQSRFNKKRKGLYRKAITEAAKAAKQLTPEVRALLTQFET
Described as above.

The target of assay [2] is His10-Flag3-TEV-MTA1 162-354 (UniProt Q13330). Briefly: co-IP + SEC; co-expression in HEK293F of His10-Flag3-TEV-MTA1 162-354 with untagged HDAC1, MBD3 and PWWP2A 1-373; FLAG resin, TEV cleavage, Superdex S200 gel filtration separates two complexes; SDS-PAGE (coomassie).
Assay [3] addresses His10-Flag3-TEV-MTA1 162-546 (UniProt Q13330). Briefly: co-IP + SEC; co-expression in HEK293F of His10-Flag3-TEV-MTA1 162-546 with untagged HDAC1, RBBP4 and PWWP2A 1-373; FLAG resin, TEV cleavage, Superdex S200 in 25 mM Tris-Cl pH 7.5, 50 mM potassium acetate, 0.5 mM TCEP; SDS-PAGE.
The target of the next assay is T4, FS2-PWWP2A 148–649 (UniProt Q96N64).
T4 sequence: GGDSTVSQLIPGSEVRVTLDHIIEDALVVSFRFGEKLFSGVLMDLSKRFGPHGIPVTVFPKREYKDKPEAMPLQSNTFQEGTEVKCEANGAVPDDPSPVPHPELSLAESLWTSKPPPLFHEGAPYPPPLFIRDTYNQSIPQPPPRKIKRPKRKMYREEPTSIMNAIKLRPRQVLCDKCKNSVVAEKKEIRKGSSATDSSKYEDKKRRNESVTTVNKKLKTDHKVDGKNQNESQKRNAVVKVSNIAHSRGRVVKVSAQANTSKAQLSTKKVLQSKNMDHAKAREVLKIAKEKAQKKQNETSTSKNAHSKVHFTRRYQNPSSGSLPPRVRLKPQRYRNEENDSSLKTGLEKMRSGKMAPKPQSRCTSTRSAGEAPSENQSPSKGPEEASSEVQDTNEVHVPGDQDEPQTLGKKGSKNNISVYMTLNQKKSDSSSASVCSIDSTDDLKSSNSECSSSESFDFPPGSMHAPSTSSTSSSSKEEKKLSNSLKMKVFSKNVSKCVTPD
In words: co-IP; anti-Flag M2 affinity gel, 0.5 mg benzonase-treated mESC nuclear extract, 3 h at 4 °C; 8-10 washes in 25 mM Tris pH 7.5, 300 mM NaCl, 0.2% NP-40; western blot.

In a further assay the target is T5, FS2-PWWP2A 1–373 (UniProt Q96N64).
T5 sequence: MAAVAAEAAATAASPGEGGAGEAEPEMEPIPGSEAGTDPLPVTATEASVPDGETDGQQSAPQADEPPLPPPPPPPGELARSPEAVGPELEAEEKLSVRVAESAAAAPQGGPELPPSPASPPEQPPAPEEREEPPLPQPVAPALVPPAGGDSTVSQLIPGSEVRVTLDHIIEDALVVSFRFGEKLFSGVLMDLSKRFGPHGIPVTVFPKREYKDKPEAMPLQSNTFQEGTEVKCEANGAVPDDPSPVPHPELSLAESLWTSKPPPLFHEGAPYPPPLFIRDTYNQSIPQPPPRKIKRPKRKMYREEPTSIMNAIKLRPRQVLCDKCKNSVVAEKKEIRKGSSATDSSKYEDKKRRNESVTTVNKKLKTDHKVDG
The description is as above.

The next assay concerns the target T6, FS2-PWWP2A 148–373 (UniProt Q96N64).
T6 sequence: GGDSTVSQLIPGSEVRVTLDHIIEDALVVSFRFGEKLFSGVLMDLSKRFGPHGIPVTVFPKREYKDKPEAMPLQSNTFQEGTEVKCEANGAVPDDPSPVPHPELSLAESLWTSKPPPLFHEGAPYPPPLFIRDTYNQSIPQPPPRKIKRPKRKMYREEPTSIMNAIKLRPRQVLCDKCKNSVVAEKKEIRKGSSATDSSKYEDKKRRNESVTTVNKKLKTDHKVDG
The description is as above.

Assay [4] deals with T2, Flag-2xStrepII (FS2) tagged full-length PWWP2A. In words: SEC; nuclear extract of E14 cells stably expressing FS2-PWWP2A, benzonase-treated, on Superose 6 10/300 in 20 mM Tris pH 7.5, 300 mM NaCl; fractions immunoblotted.

These are yes or no findings as the source states them, for the method shown. For part of these data: In cells and extracts the contact can be indirect. Some entries that bind do so weakly or less than the wild type. For part of these data: Sequences can lack the tags named with a protein.

As for “CHD4, endogenous in mESCs (from UniProt Q6PDQ2 1-1915) (enzyme)”, the binding entry (with FS2-PWWP2B; in assay [1]) was “no binding” throughout.

As for “HDAC1, endogenous in mESCs (from UniProt O09106 1-482) (enzyme)”, the binding entry with FS2-PWWP2B is given as “binds”; with FS2-PWWP2A 383–755, “no binding”.

Turning to “HDAC1, untagged, co-expressed in HEK293F cells (from UniProt Q13547 1-482) (enzyme)”, the binding entry in assay [2] and in [3] was “binds” in each case.

As to “HDAC2, endogenous in mESCs (from UniProt P70288 1-488) (enzyme)”, the binding result in [1] is “binds”.

Regarding “MTA1, endogenous in mESCs (from UniProt Q8K4B0 1-715)”, the binding result with FS2-PWWP2B is reported as “binds”; in the assay with FS2-PWWP2A 148–649, “binds”; with FS2-PWWP2A 1–373 it was “binds”; in assay [1], “binds”; with FS2-PWWP2A 383–755, “no binding”; in the assay with FS2-PWWP2A 148–373, “binds”. In addition, in [4], the binding entry is “binds”.

B1: PWWP2A1–373, untagged, co-expressed in HEK293F cells (domain or fragment, UniProt Q96N64 1-373, looked up)
chain: MAAVAAEAAATAASPGEGGAGEAEPEMEPIPGSEAGTDPLPVTATEASVPDGETDGQQSAPQADEPPLPPPPPPPGELARSPEAVGPELEAEEKLSVRVAESAAAAPQGGPELPPSPASPPEQPPAPEEREEPPLPQPVAPALVPPAGGDSTVSQLIPGSEVRVTLDHIIEDALVVSFRFGEKLFSGVLMDLSKRFGPHGIPVTVFPKREYKDKPEAMPLQSNTFQEGTEVKCEANGAVPDDPSPVPHPELSLAESLWTSKPPPLFHEGAPYPPPLFIRDTYNQSIPQPPPRKIKRPKRKMYREEPTSIMNAIKLRPRQVLCDKCKNSVVAEKKEIRKGSSATDSSKYEDKKRRNESVTTVNKKLKTDHKVDG
notes: source: HEK293F, co-transfected, co-purified with FLAG-MTA1 (FLAG resin, gel filtration)
As for B1, the binding result in assay [2] is given as “binds”.

The record behind these values is article PMC6143588, “A variant NuRD complex containing PWWP2A/B excludes MBD2/3 to regulate transcription at active genes” (Nature Communications, 2018).
